Laboratory results from ChEMBL document CHEMBL4888484, “Replenishing the malaria drug discovery pipeline: Screening and hit evaluation of the MMV Hit Generation Library 1 (HGL1) against asexual blood stage Plasmodium falciparum ,using a nano luciferase reporter read-out” (2022).
Values joined by “and” are separate entries in the source; they are usually repeats but may differ in a detail not shown here. Identical values can stand only once. About 540 (0.36%) of roughly 150,000 compounds showed an effect of 50% or more. The list shows a part of the results.

Tested on: Plasmodium falciparum
Test: Primary screen in NF54 nanoGlo assay, in single point, at 2uM, 72h; a lower Z score goes with more inhibition
Assay type: functional, Erythrocyte
Conditions: timepoint 72 hour

Row | Compound | % Inhibition [%] | Z score | % Inhibition (2 µM)
1 | NC(=NCc1cccc2cccnc12)N1CCN(c2nccs2)CC1 | 57 | -10.38 | –
2 | O=C(NCCN1CCCCC1)c1nc(Cc2ccccc2)n(-c2ccccc2)n1 | -13 | 1.8 | –
3 | CCc1ccc([C@@H]2CCCCN2C(=O)c2cn(CC(F)(F)F)nc2C)o1 | 10 | -1.33 | –
4 | C[C@](O)(CNc1ncnc(N)c1Cl)C1CC1 | -3 | 0.64 | –
5 | CN=C(NCc1cccs1)NCc1ncc(C)s1 | 8 | -0.95 | –
6 | CC(C)n1cnnc1CN(C)c1cc([C@H]2CCOC2)ncn1 | -12 | 2.22 | –
7 | COc1cccc(S(=O)(=O)N2CCC(c3cc(N)on3)CC2)c1 | 19 | -2.95 | –
8 | O=C(CCS(=O)(=O)c1ccccc1)N1C[C@H]2CC[C@@H](C1)N(CC1CC1)C2 | -6 | 0.77 | –
9 | C=CCNC(=O)C(=O)NCc1ccc(F)cc1 | -11 | 1.47 | –
10 | Cc1nc(C)c(-c2ccc([C@H](C)N(C)C)cc2)s1 | -8 | 1.48 | –
11 | CC1OCCC1C(=O)NC(C(N)=O)c1ccc(F)cc1 (centres undefined) | -2 | 0.33 | –
12 | N#Cc1nc(N)n(CCNC(=O)C2CCCC2)c1C#N | -16 | 1.77 | –
13 | CCn1cncc1CN1CCn2nc(C#N)cc2C1 | 6 | -1.11 | –
14 | COc1ccc2c(c1)[n+](CC(=O)c1ccc(-c3ccc(Br)cc3)cc1)c(CO)n2C | 70 | -5.57 | –
15 | CCS(=O)(=O)Cc1noc(-c2cc(-c3ccccc3)no2)n1 | -6 | 1.11 | –
16 | Cn1ccnc1-c1ccc(C(=O)N2CC[C@@H](O)C2)cc1 | -6 | 0.82 | –
17 | O=C(c1cccc(F)c1)N1Cc2ccccc2-c2ccccc2C1=O | -5 | 0.86 | –
18 | CNC(=O)C1CCN(c2nc3ncn(CC(=O)Nc4ccc5c(c4)OCO5)c(=O)c3s2)CC1 | -19 | 1.64 | –
19 | COc1ccccc1NC(=O)N1CCc2nc(NC(=O)c3ccco3)sc2C1 | -4 | 0.62 | –
20 | Cc1nc2c(ccc3ccccc32)c(O)c1CN1CCOCC1 | 3 | -0.34 | –
21 | COc1ccc(C[C@H]2CCOC3(CCNCC3)C2)cc1 | 5 | -0.62 | –
22 | Cc1cc(C(=O)N2CC[C@@](O)(C3CCOCC3)[C@H](C)C2)sc1C | -5 | 1.07 | –

Row | Compound | % Inhibition [%] | Z score | % Inhibition (2 µM)
23 | O=C(Cn1ccc2ccccc21)O[C@@H](c1ccccc1)c1ccccn1 | 16 | -1.83 | –
24 | CCC(C(=O)NC1CCCC(OC(=O)Nc2ccc(F)cc2)C1)c1ccccc1 (centres undefined) | -21 | 3.95 | –
25 | Cc1n[nH]c(C)c1[C@@H](C)CC(=O)NCc1cc(Cl)c2c(c1)OCO2 | -7 | 0.91 | –
26 | C#CCNC(=O)C1CCCC1C(=O)NCC#C (centres undefined) | -1 | 0.08 | –
27 | CNc1ncc(-c2cc(C(=O)N3CCCCCC3)c3c(C)cc(C)cc3n2)cn1 | 2 | -0.32 | –
28 | Cc1ccc(-c2nccn2C[C@H]2CCCN(CCO)C2)c2cccnc12 | 7 | -1.1 | –
29 | CCc1nc2c(c(OC3CCN(C(=O)c4ccn(CC)n4)CC3)n1)CCOCC2 | -11 | 1.12 | –
30 | CC(C)Oc1ccc(NS(=O)(=O)C2CC2)c(Cl)c1 | 28 | -3.99 | –
31 | CCc1c(C)nc(N)nc1N1CCC[C@H](c2nnc(CO)n2C)C1 | -6 | 1.19 | –
32 | CNc1cc(-c2noc([C@H]3C[C@@H]3c3ccco3)n2)ncn1 | -11 | 2.13 | –
33 | COCC1(C)NC(=O)N(C2CCCN(c3c(C)cc(Br)cc3C)C2=O)C1=O (centres undefined) | -14 | 2.33 | –
34 | COc1ccc(CCNC(=O)c2cc(-c3ccccc3OC)nc3n[nH]c(-c4ccc(F)cc4)c23)cc1OC | -16 | 1.43 | –
35 | C[C@H]1C(=O)N(CC2CCOC3(CCC3)C2)C(=O)N1C (some centres undefined) | -6 | 1.23 | –
36 | Cc1noc([C@@H]2[C@@H](C)OCCN2Cc2cc(C(F)(F)F)nn2C)n1 | -9 | 1.03 | –
37 | Cc1ncsc1CCOc1ccc(N)cc1 | 30 | -3.44 | –
38 | CN(C)c1nc(N2CCN(c3ccc(F)cc3)CC2)nc2c1CN(S(=O)(=O)c1ccc(Cl)cc1)CC2 | -5 | 0.99 | –
39 | COc1ccc(-c2csc3nccn23)cc1 | -9 | 1.15 | –
40 | CCOc1ccc(-c2nsc(NC(=O)c3cccs3)n2)cc1OC | 8 | -1.2 | –
41 | O=C(Nc1ccc(O)cc1)C(=O)Nc1nc2ccccc2s1 | -16 | 2.45 | –
42 | CCn1ccnc1C(=O)N(C(C)C)C1CC(C)(C)C1 | -12 | 1.82 | –
43 | Fc1ccc(CNC2CCN(c3ccc4c(c3)OCO4)CC2)c(F)c1 | -9 | 1.7 | –
44 | Cc1nccn1-c1ccccc1CNC(=O)c1cc(S(N)(=O)=O)ccc1F | -6 | 0.82 | –

Row | Compound | % Inhibition [%] | Z score | % Inhibition (2 µM)
45 | O=C(Nc1nnc(COc2ccccc2)o1)c1ccccc1 | 17 | -2.38 | –
46 | NC(=O)C1CCCC(C(=O)NS(=O)(=O)C2CCC2)C1 (centres undefined) | -2 | 0.27 | –
47 | Cc1csc(-c2cnc(C=Cc3ccnn3CC3CC3)[nH]c2=O)n1 | -10 | 1.35 | –
48 | Cc1occc1C(=O)Nc1ccc2[nH]c(=O)[nH]c2c1 | -5 | 0.8 | –
49 | Cc1cccc(NC2CCN(S(=O)(=O)c3cccs3)CC2)n1 | 0 | 0.03 | –
50 | Cc1noc(C)c1C(=O)NC[C@H](O)c1ccc(-c2ccco2)o1 | 2 | -0.26 | –
51 | O=C(Cc1ccc(F)cc1F)N1C[C@@H]2CN(CC3CCC3)C[C@]2(C(=O)O)C1 | 0 | -0.02 | –
52 | CN(c1ccc2c(c1)CCO2)S(C)(=O)=O | 13 | -1.53 | –
53 | Cc1ccnc(NCC2CCC(S(C)(=O)=O)CC2)n1 (centres undefined) | 6 | -0.94 | –
54 | O=C1c2ccccc2[C@H](O)N1COc1cccc(F)c1 | -10 | 1.17 | –
55 | Cc1nc2scc(C3CC3)n2c1CNC[C@H]1CN(C)CCO1 | -8 | 1.52 | –
56 | CCN(CC)CCNC(=O)c1ccc(N2CCCc3ccccc32)s1 | 2 | -0.21 | –
57 | O=C(N[C@H]1CC[C@H](n2cnnc2)CC1)c1cccc(-n2cnnc2)n1 | 8 | -1.13 | –
58 | CN(C)S(=O)(=O)Nc1cccc(COCC(F)(F)F)c1 | -6 | 0.84 | –
59 | Cc1nc2ccc(C(=O)Nc3cccc(C(=O)N4CCC[C@H](O)C4)c3)cc2n1C | -6 | 0.8 | –
60 | CN1C(=O)[C@]2(Nc3ccccc3C(=O)N2c2ccc(F)cc2)c2ccccc21 | -3 | 0.41 | –
61 | Cc1ccc(C(=O)NCCC(=O)NC[C@](C)(O)c2ccsc2)c(O)c1 | 8 | -1.46 | –
62 | COc1cc2c(cc1OC)[C@@H](NC(=O)Cn1c(C)nc3cc(OC)c(OC)cc3c1=O)CC2 | 7 | -0.98 | –
63 | Cn1ccc2cccc(NC(=O)[C@@]3(C)CCNC(=O)C3)c21 | 4 | -0.5 | –
64 | CN1C[C@@H](NC(=O)c2cccc(Cl)c2)CC1=O | 4 | -0.57 | –
65 | CCNC(=O)c1ccc2cn(CC)nc2c1 | -23 | 3.3 | –
66 | CCOc1cc(CNCCN2CCOCC2)cc(Cl)c1OCc1ccccc1 | 38 | -0.96 | –

Row | Compound | % Inhibition [%] | Z score | % Inhibition (2 µM)
67 | Cc1cccc(Cn2ncc(C)c2NC(=O)NCCc2cc(O)nc(C)n2)c1 | -12 | 1.76 | –
68 | C[C@@H](CNC(=O)c1cc2c(s1)CCC2)N1CCOCC1 | -11 | 1.8 | –
69 | O=C(NC1CCCCC1)[C@H](Cc1ccccc1)NC(=O)N1CC(O)=Nc2ccccc21 | – | – | 5% and -6%
70 | O=S(=O)(Nc1nnc(CC2CCCC2)o1)c1ccccc1 | -10 | 1.06 | –
71 | COCCNC(=O)c1ccc(-c2cccc3c2CCNC3)o1 | -15 | 2.03 | –
72 | Cc1cc(S(=O)(=O)NCc2cccc3c2OCO3)sc1Cl | 2 | -0.25 | –
73 | CC(C)(C)c1cc(C(F)(F)F)nc(NC(=O)NS(=O)(=O)N2CCCCCC2)n1 | -5 | 1 | –
74 | COc1ccc2nc(NC(=O)CCc3nc(CS(=O)(=O)c4ccc(C)cc4)no3)sc2c1 | -5 | 0.91 | –
75 | O=C(c1cc2c(ccc3ccccc32)o1)N1CCCC1 | -16 | 3.18 | –
76 | CCc1c(C)sc(NC(=O)[C@@H]2CCCO2)c1C(=O)NC1CCCC1 | -12 | 1.64 | –
77 | C[C@@H](CCNc1cc(=O)[nH]c2cccnc12)NC(=O)OC(C)(C)C | -6 | 1.27 | –
78 | CC(C)CN1CCOc2c(O)cc(-c3ccc(Cl)cn3)cc2C1 | 2 | -0.27 | –
79 | COC(=O)[C@]1(C)C[C@H](C(=O)NC2CCCC2)[C@H](c2ccccc2Cl)N1C | -1 | 0.09 | –
80 | CCOC(=O)C1(NC(=O)[C@H]2CCCN(S(=O)(=O)CC)C2)CCCCC1 | -9 | 1.09 | –
81 | CNc1snc(C)c1C(=O)N(C)Cc1nc2ccccc2c(=O)[nH]1 | -3 | 0.31 | –
82 | Cc1ccc(C#N)c(N[C@H]2C[C@@](C)(O)C2)n1 | 9 | -0.94 | –
83 | CNc1nc2c(c(C(=O)N3CCCC3)n1)CN(c1ncnc(C)c1C)CC2 | -10 | 1.9 | –
84 | COc1ccc(F)cc1-c1cc(N2CCC(O)CC2)ncn1 | 6 | -1.22 | –
85 | O=C(N[C@H]1CCN(c2ccc(Cl)c(F)c2)C1=O)c1cnsn1 | -14 | 1.64 | –
